The other results are listed elsewhere or left out.
T1: UNK ZnF1-3 (human, UniProt Q9C0B0 31-174)
T1 sequence: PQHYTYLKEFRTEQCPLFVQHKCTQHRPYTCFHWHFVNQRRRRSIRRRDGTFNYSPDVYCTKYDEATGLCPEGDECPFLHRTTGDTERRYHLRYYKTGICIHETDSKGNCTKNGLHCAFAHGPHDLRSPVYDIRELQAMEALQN

B1: chr5:56177553:56177554:+_ENSG00000095015_ENST00000399503|hu_mus|FALSE|FALSE (ssRNA)
RNA: GGGAGUUCUACAGUCCGACGAUCAUCCGCGAUAGCCAUCAGACGCCGGCGCAUCCUGGUGAAGUGGGUGGAGCCAGAAGCAUUAAGCAUGGUUACCAGCUUGGAAAACACAGCGGGCACUGCGGUCACCAUCCUGGCAGAGCUCAACAGAGGAUUGAGCAUCA
B2: chr4:128995729:128995730:-_ENSMUSG00000057236_ENSMUST00000102598|mus_hu|FALSE|FALSE (ssRNA)
RNA: GGGAGUUCUACAGUCCGACGAUCCUCUCCAAUUUUACUUAAAUCCCAGACAUUCAGUCUGCGAUCAGUACCACUGGAAGCUAAAAUAGUCUCAUUGUGAGGUGACCACUGAACCUGGAAUAUUUCAUCCUUAUGUGACUCAAACAACAGAGGAUUGAGCAUCA
B3: chr17:37009338:37009339:-_ENSG00000125691_ENST00000394332|hu_mus|FALSE|FALSE (ssRNA)
RNA: GGGAGUUCUACAGUCCGACGAUCUCUGCACAGUUGAUCACAGCUCCGACCGGAAGACCCAGGGAAAUCCGGAAUUUCGCCCCGGAGGACCCACCGCGUCCUCGCUUCGACAUCUUGAACGCCCGGAAAGGGUCAGAAAGGAAGCAACAGAGGAUUGAGCAUCA
B4: chr7:56126341:56126342:+_ENSG00000146731_ENST00000540286|hu_mus|hu_hu_hu_mus_True|1_68 (ssRNA)
RNA: GGGAGUUCUACAGUCCGACGAUCCAUGUUUCUCCUCUUGGCUCUGCGCAGAGCUACGAUCCCUUCUUUUGAAAGAGCAUCUAAGGAAAAGGGGUCAAUCCCCUUUUGAUUAAUAACGACAAAUCCUUUAUCUGAGUCGCCACACAACAGAGGAUUGAGCAUCA
B5: 57309863_57312345_2297_CDS_ENSMUSG00000079184_ENSMUST00000116468|mouse|control|control (ssRNA)
RNA: GGGAGUUCUACAGUCCGACGAUCGCAUGCUAUUGGGAAAACAGGUUCCAGUAGAGCAAGGCGAGAUUCAAAGUAAUCCCUGAUUGUUUCUUCUGCAACUCUGGAAAGUGUCUCCAAGUGGCUCUUCAGCAGUUCAUAUACAAGCAACAGAGGAUUGAGCAUCA
B6: chr19:8913615:8913616:-_ENSMUSG00000071658_ENSMUST00000096259|mus_hu|mus_mus_mus_hu_False|18_38 (ssRNA)
RNA: GGGAGUUCUACAGUCCGACGAUCAGGGUACCAAAACCUUCUGCCUGAAAUGGGUGCCCCACCCAGUAGGGAGUUGCAGCUGAAAGUAUCUGAUGCACUGACAGUUACUAUACGAAAGGUCACUAGAGGGGAGGGCCAGGCCAGCAACAGAGGAUUGAGCAUCA
B7: chr1:36068893:36068894:-_ENSG00000126067_ENST00000373237|hu_mus|FALSE|FALSE (ssRNA)
RNA: GGGAGUUCUACAGUCCGACGAUCCCCUGGUGAGUGGGAGGGAAGGACGUGACGUUAGGAGUCCCGCUUAGGGAAGGCAAUGUUCUCCAGAUUGUGGAUGCCAUCUUUGUCAAUGACCCGGACACUGAAGGUGGGCAGAUUCAACAACAGAGGAUUGAGCAUCA
B8: chr3:14508043:14508044:+_ENSG00000131389_ENST00000360861|hu_hu|FALSE|FALSE (ssRNA)
RNA: GGGAGUUCUACAGUCCGACGAUCCGCGCCCGGCAGCGUCAGCCCUCGGACCAGCAGCACCAGGAGCAUGGCGAAUGGAAAAGUGGCUGUGAAGUAGACGACCUUCCCAGUGGACCUGACGCCCUUCCAGAUGCAGAAGAAACACAACAGAGGAUUGAGCAUCA
B9: chr14:55515796:55515797:+_ENSMUSG00000022194_ENSMUST00000116476|mus_hu|motif|central (ssRNA)
RNA: GGGAGUUCUACAGUCCGACGAUCAAAUAGGGACUCAUCUAAGGCCAAGGAAGUCCUCACUGACUCUUUGUCUGAGAACUCGGUAUACGCAAACCCUUUGGGAUGGCCACUAAAUUUGUCACACAGUAUGGUAACACGGUUGACCAACAGAGGAUUGAGCAUCA
B10: chr5:37680062:37680063:+_ENSMUSG00000029121_ENSMUST00000031004|mus_hu|mus_mus_mus_hu_False|28_88 (ssRNA)
RNA: GGGAGUUCUACAGUCCGACGAUCUUUGGGUGUAGCUGGUACCUCGUACACAGGCCCGUCAUACAUGCCCCUGGAAACCCCUUGCAAUCCAAAAACCUUAUUCCUGAUCCUGACACGCUGGUACAGGUGCUCCGGGAACGCCUUCAACAGAGGAUUGAGCAUCA
B11: chr3:148802587:148802588:-_ENSG00000071794_ENST00000310053|hu_mus|hu_hu_hu_mus_False|8_18 (ssRNA)
RNA: GGGAGUUCUACAGUCCGACGAUCUCCAACAACUUGUCCUCUCAUAGUUCCAAAUAAAACCAAAUCUUGCUCUUCAUCACUCGUUAGGAAGUCAUCUGGAGGAAUAAUGUCUUGGAAUUCAAAACGUGGAAAGAAAGUUGAGUACAACAGAGGAUUGAGCAUCA
B12: chr2:153237265:153237266:-_ENSMUSG00000061411_ENSMUST00000109784|mus_mus|mus_mus_mus_hu_False|8_98 (ssRNA)
RNA: GGGAGUUCUACAGUCCGACGAUCAAAAAAAAAAAAAGAAAAGUGUCCUUGUGCCCAAAGUCUCAGGUGCUUGGAGUGUGGCUAGAAACAGCUCUUUUGGAUCCCACCUCUUUCAAAAACAAAAUGUCCAACUGGUGGAGGCAGCAACAGAGGAUUGAGCAUCA
B13: chr19:16212804:16212805:+_ENSG00000167460_ENST00000300933|hu_mus|hu_hu_hu_mus_False|38_48 (ssRNA)
RNA: GGGAGUUCUACAGUCCGACGAUCAACAAUUCUGGAGUGAAGGAAAGAUGUAACAUGGAACAGCAUUAAAGCUCAGUCAGAAGGCACGUGGGUAAUUAUGACUAUUUCAGCAUUCUCGCUUGGAAUGCUUAAAGACAAUCUGUUCAACAGAGGAUUGAGCAUCA
B14: chr6:40197388:40197389:+_ENSMUSG00000057716_ENSMUST00000061740|mus_mus|mus_mus_mus_hu_False|38_88 (ssRNA)
RNA: GGGAGUUCUACAGUCCGACGAUCGAGACACUGGGGUGGAUUUAUUCUCAGUUUGGGUGGGUGCUAGCCACUAAGACUGUUAUUUUGGGAUUCAUGGCCUUGAAGAUCAAGAGGGAAAGGAAGAGGAUGGAAAGAGUCAAGAGUCAACAGAGGAUUGAGCAUCA
B15: chr10:62544473:62544474:+_ENSG00000170312_ENST00000395284|hu_hu|FALSE|FALSE (ssRNA)
RNA: GGGAGUUCUACAGUCCGACGAUCUGUAGUUUUGUGUCUACCCUUAUACACAACUCCAUAGGUACCUUCUCCAAUUUUCUCUAUUUUGGUAUAAUCUUCCAUAGUUAGUCAAUGGGUAUGGUAGAUCCCGGCUUAUUAUUCCGCCAACAGAGGAUUGAGCAUCA
B16: chr16:22092171:22092172:+_ENSG00000185716_ENST00000542527|hu_mus|motif|central (ssRNA)
RNA: GGGAGUUCUACAGUCCGACGAUCCCGUUUAGACAUUCGUCAGCCUGGUAAACAGACUUUGCCAGCAAACAGAAGUCCGGCGGUUGUGAAGAAAAUCGAUAAGACAAAAAGUACAUAUGAUGACCCAACUACUGUGUUGUUGGGCAACAGAGGAUUGAGCAUCA
B17: chr11:87793471:87793472:-_ENSMUSG00000020483_ENSMUST00000020775|mus_mus|mus_mus_mus_hu_False|88_88 (ssRNA)
RNA: GGGAGUUCUACAGUCCGACGAUCUGGACUUGAAAAUAAAAGAAUAAGCUAGAUUUCCCACCCCCCCACAUUGUCAACCCUACACGAGAGUUUUGAAGGCGACUCAUGAAAAUCAGCAGCUCAAACGGCAAUGACCACCCCACCCAACAGAGGAUUGAGCAUCA
B18: chr17:45760540:45760541:+_ENSG00000108424_ENST00000290158|hu_mus|motif|central (ssRNA)
RNA: GGGAGUUCUACAGUCCGACGAUCGCGCUGACCAUUCGUCAGUGUUUUCCCUAGAGUAAUUAAAAUGAAACCAAACCAAACCGGAACAGCGUCUUUCCUCAUUUAAAAAAAAAACACGUCUCUUGUGCUGCAUCAGUAGCCAGACAACAGAGGAUUGAGCAUCA
B19: chr3:57569730:57569731:-_ENSG00000168374_ENST00000303436|hu_hu|FALSE|FALSE (ssRNA)
RNA: GGGAGUUCUACAGUCCGACGAUCAUAUUCUACUGUUUCCACAUUAAAACCAAUGGUAGGAAUGGUGGUGACUAUCUCCCCUAACUUCAGUUUAUACAGAAUGGUUGUCUUGCCAGCAGCAUCCAAUCCAACCAUCAAAAUGCGCAACAGAGGAUUGAGCAUCA
B20: chr10:62048396:62048397:-_ENSMUSG00000020075_ENSMUST00000045866|mus_mus|motif|central (ssRNA)
RNA: GGGAGUUCUACAGUCCGACGAUCGGCCUCUACAGCUCCCUUCUCCUCAAUCAGCUUCUCAGCUGACUGCUUGAAAUGGCGGAUGGCAGUGGGAGGCACAGAAUCCAAGAGCCUGAUGGCGUCUUUGCUGGAGGCUUUUAUUAUCAACAGAGGAUUGAGCAUCA
B21: chr6:42636609:42636610:-_ENSMUSG00000036667_ENSMUST00000045054|mus_mus|FALSE|FALSE (ssRNA)
RNA: GGGAGUUCUACAGUCCGACGAUCGGCAUCAAUGCAGUAAACCCCCAGGGAGUCAUUGACUUCUGGCUCAAUCUUUGACUCUAUUCCACAGCUCUCGAGAAUUUUCACCAAUGGUGCUAAAGAUGAGUGCACACCAAUGGCUGACAACAGAGGAUUGAGCAUCA
B22: chr14:76904430:76904431:+_ENSMUSG00000022010_ENSMUST00000022587|mus_mus|mus_mus_mus_hu_True|1_98 (ssRNA)
RNA: GGGAGUUCUACAGUCCGACGAUCUGCAGCCAAAAACAGAGAGAGGGAAAAAAAGAGGGAACACCAGCAGCCUUGUAUAAGCUAGAUAAAAUCUUCUGGCUUUCCGCAGCCCAGGGAGAAACAGAAAACGGCAGCCCUCGAGUGCAACAGAGGAUUGAGCAUCA

Molecular target: T1, UNK ZnF1-3
Assay: nsRBNS (natural sequence RNA bind-n-seq); RBNS binding buffer (assumed for nsRBNS): 25 mM Tris pH 7.5, 150 mM KCl, 3 mM MgCl2, 0.01% Triton X-100, 500 ug/ml BSA, 20 U/ml SUPERase-In, 4 C; UNK is unkempt and MSI1 is Musashi-1; names of the RNAs are library labels; protein concentration not given here; high values mean tight binding

| Binder | binding signal |
| --- | --- |
| B1 | 1.22 enrichment R |
| B2 | 0.777 enrichment R |
| B3 | 1.34 enrichment R |
| B4 | 1.49 enrichment R |
| B5 | 0.887 enrichment R |
| B6 | 1.37 enrichment R |
| B7 | 1.3 enrichment R |
| B8 | 1.2 enrichment R |
| B9 | 1.05 enrichment R |
| B10 | 0.862 enrichment R |
| B11 | 1.29 enrichment R |
| B12 | 1.77 enrichment R |
| B13 | 1.19 enrichment R |
| B14 | 1.86 enrichment R |
| B15 | 0.419 enrichment R |
| B16 | 0.943 enrichment R |
| B17 | 1.99 enrichment R |
| B18 | 1.24 enrichment R |
| B19 | 0.856 enrichment R |
| B20 | 0.648 enrichment R |
| B21 | 1.01 enrichment R |
| B22 | 2.51 enrichment R |
